This passage reports z-score results from PubChem BioAssay AID488969 (Vanderbilt High Throughput Screening Facility, 2010).

Over roughly 110,000 compounds, “z-score” has its median near -0.1; the highest 2% begin near 2. The list shows a part of the results. The source made the active and inactive calls.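 The calls were made as follows: active = z-score in the third read window above 3 or below -3; inactive = the rest.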

The target in this assay is Metabotropic glutamate receptor 8 (Rattus norvegicus) (UniProt P70579). Briefly: rat mGluR8 modulators via GIRK flux, primary screen, cell-based, thallium flux, HTS (AID 488969). The following applies: HEK293 rat mGluR8, GIRK (G protein-gated inwardly rectifying potassium channel) thallium flux, FluoZin2; at 10 µM; stronger effect = higher value; submaximal glutamate (EC20) added with thallium.
Sequence of UniProt P70579 (P70579 whole entry, looked up): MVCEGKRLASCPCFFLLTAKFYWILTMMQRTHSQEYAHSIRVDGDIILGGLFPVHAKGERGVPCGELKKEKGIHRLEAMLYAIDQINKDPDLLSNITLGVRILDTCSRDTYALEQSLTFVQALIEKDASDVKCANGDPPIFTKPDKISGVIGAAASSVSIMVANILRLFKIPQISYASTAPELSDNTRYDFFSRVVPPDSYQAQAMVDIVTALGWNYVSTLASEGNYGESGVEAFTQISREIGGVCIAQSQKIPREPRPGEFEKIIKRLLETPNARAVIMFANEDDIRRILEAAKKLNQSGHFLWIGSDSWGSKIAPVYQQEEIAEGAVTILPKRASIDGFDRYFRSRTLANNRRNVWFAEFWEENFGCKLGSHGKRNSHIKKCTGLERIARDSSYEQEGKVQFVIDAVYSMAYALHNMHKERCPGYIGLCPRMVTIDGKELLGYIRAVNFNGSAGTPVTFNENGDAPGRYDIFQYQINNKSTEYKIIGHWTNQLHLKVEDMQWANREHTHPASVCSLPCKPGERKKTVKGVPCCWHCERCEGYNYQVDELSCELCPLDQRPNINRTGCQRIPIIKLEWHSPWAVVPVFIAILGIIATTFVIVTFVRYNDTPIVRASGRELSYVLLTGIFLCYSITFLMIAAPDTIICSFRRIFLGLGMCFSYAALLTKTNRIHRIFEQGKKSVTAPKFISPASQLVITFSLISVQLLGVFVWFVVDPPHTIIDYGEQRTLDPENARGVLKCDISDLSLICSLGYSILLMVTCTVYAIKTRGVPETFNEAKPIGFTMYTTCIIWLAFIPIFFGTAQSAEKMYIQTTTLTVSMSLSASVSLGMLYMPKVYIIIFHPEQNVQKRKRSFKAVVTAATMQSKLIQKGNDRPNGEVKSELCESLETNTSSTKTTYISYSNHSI
As for `COc1ccc(-c2cnc(SCC(=O)Nc3cc(C)on3)n2Cc2ccco2)cc1`, the z-score was -0.553. The compound `Cc1c(C(=O)NC(C)c2ccncc2)oc2ccccc12` (stereo not drawn) registered a z-score of -0.233. In turn, `CC1=C(C(=O)Nc2ccccc2)C(c2ccc(O)cc2)N2C(=O)CSC2=N1` (stereo not drawn) came in with a z-score of 0.0242. Regarding `Cc1ccc(C(=O)NCCCNc2ccc(C(F)(F)F)cc2[N+](=O)[O-])cc1`, the z-score is -0.325. As to `Cc1cccc(/C=N/c2sc3c(c2C(=O)OC(C)(C)C)CCN(C)C3)c1O`, the z-score stood at 0.0245. As for `CCN(CC(=O)NC1CCS(=O)(=O)C1)c1nc(-c2cccnc2)nc2ccccc12` (stereo not drawn), the figure is -0.646.

For the compound `CSc1nnc(C)c(=O)n1COC(=O)COc1ccccc1`, the z-score was -0.0718. `CCn1ncc(Br)c1C(=O)Nc1ccc(C(=O)OC(C)C)cc1`: the z-score turned out to be 0.0146. As for `CCOc1ccc2nc(SCC(=O)NC(=O)NCc3ccco3)sc2c1`, the figure is 0.447.

For the compound `CC(C)NC(=O)CSc1ccccc1C(=O)NCc1ccc2c(c1)OCO2`, the z-score is -0.212. Consider `CS(=O)(=O)N(CC(=O)N1CCCCC1)c1ccc(Cl)c(C(F)(F)F)c1`, for which the z-score was -0.304. As for `COC(=O)COC(=O)c1ccccc1NC(=O)c1ccccc1`, the z-score was -0.448. As for `COc1ccc(NC(=O)CSc2nnc(Cc3cccn3C)n2-c2ccc(F)cc2)cc1`, the figure is -0.282. Consider `O=C(CSc1nnc(CNC(=O)C23CC4CC(CC(C4)C2)C3)n1-c1ccccc1)Nc1ccc(F)cc1`, for which the z-score was -1.07.

Take `N#C/C(=C\c1cc(Cl)cc(Cl)c1O)C(=O)NC1CCCCC1`: the z-score was -0.277. Take `COc1ccccc1NC(=O)CSc1ncnc2c1oc1ccccc12`: the z-score worked out at 0.0834.

The compound `CCN(c1ccccc1)S(=O)(=O)c1ccc(OCc2c(C)noc2C)cc1` showed a z-score of -0.275.

`CN1CCN(CCCNC(=O)Cn2ncc3c4ccccc4n(C)c3c2=O)CC1` had a z-score of 0.0091.

Compound `O=c1c2oc3ccccc3c2[nH]c(=S)n1-c1ccccc1` had a z-score of 0.645.

On to `COc1ccc2c(c1)CC/C(=C\c1ccc(OC)c(Cn3cccn3)c1)C2=O`, for which the z-score was -0.628. As to `COc1ccc(NC(=O)/C(C#N)=C/c2c(C)nn(-c3ccc(F)cc3)c2Cl)cc1Cl`, the z-score is -0.53. As for `CCOc1ncccc1C(=O)OCC(=O)NCCc1ccccc1`, the figure is 0.0466. For the compound `COc1ccc(S(=O)(=O)N2CCC(C(=O)N3CCc4ccccc4C3)CC2)cc1`, the z-score was -0.209. Take `Cc1ccc(-c2csc3nnc(SCC(=O)NCc4ccco4)n23)cc1`: the z-score was 1.78. Regarding `Cc1cccc(CSc2cccc3cccnc23)c1`, the z-score is active: 8.5. As for `Cc1nc(-c2ccccc2)sc1C(=O)/C=C/c1ccccc1`, the z-score stood at 0.327. Consider `CCCc1cc2c(=O)c(-c3ccc4c(c3)OCCO4)c(C)oc2cc1OS(C)(=O)=O`, for which the z-score was 0.121.

`COc1ccc(NC(=O)c2cccnc2Nc2ccc(OC)cc2)cc1` registered a z-score of 0.757. Regarding `Cc1sc2ncnc(NCc3cccs3)c2c1C`, the z-score was -0.314. `COc1ccc(OC)c2sc(N3CCCCC3)nc12` had a z-score of 0.0115.

`Clc1ccc(-c2csc(N/N=C/c3cccnc3)n2)c(Cl)c1` displayed a z-score of -0.14. With `O=C(Nc1cccnc1)c1cccc(NC(=O)c2ccco2)c1`, the z-score was -0.105. As for `Cc1c(NC(=O)C(C)Sc2nnc(-c3ccccc3)o2)c(=O)n(-c2ccccc2)n1C` (stereo not drawn), the figure is -0.308; as for `Cc1nc2cc(NC(=O)Nc3nccs3)ccc2n1C`, -0.136. As for `C=CCn1c(Cc2cccs2)nnc1SCC(=O)Nc1ccc(OC)c(OC)c1`, the figure is 0.0201; as for `Cc1nnc2sc(-c3ccc(NC(=O)c4cccnc4)cc3)nn12`, -0.542; as for `CCOc1ccc(NC(=NCc2ccc3c(c2)OCO3)SC2CC(=O)N(c3ccc(OCC)cc3)C2=O)cc1` (stereo not drawn), -1.22.

Compound `COc1ccccc1CN(CC(=O)NCc1ccc2c(c1)OCO2)C(=O)c1ccc2c(c1)OCCO2` returned a z-score of -0.297.

Compound `CCN(CC)C(=O)Nc1ccc(C(=O)OC)cc1` had a z-score of -0.62. Turning to `Cc1cc(/C=C2\C(=N)N3C(SCc4ccccc4)=NSC3=NC2=O)c(C)n1Cc1ccccc1`, the z-score was 0.143. Take `COc1ccccc1C1C(C#N)=C(N)Oc2cc(C)n(Cc3ccccn3)c(=O)c21` (stereo not drawn): the z-score was -0.178. `Cc1nc2sc(-c3ccccc3)cc2c(=O)[nH]1` returned a z-score of 0.314.

Compound `CCCCCn1nc(C)c(/C=N/NC(=O)c2ccoc2C)c1C` showed a z-score of -0.359.

`COc1ccc(-c2nsc3c(N4CCN(S(=O)(=O)c5ccccc5F)CC4)ncnc23)cc1` showed a z-score of -0.298. In turn, `CCOC(=O)c1ccc(NC(=O)NC2CC3CCC(C2)N3Cc2nnnn2Cc2ccco2)cc1` (stereo not drawn) came in with a z-score of -0.985. As to `CC1=CCC(Cc2nc3ccccc3o2)C1(C)C` (stereo not drawn), the z-score was -0.293. The result for `Cc1ccc(Cn2c(Sc3nccc(C)n3)nc3c2c(=O)[nH]c(=O)n3C)cc1` reads 0.024. Consider `C=CCn1cc(-c2ccc(Cl)cc2)cc(C#N)c1=O`, for which the z-score was -0.444.

For the compound `COC(=O)c1cccc(COC(=O)c2cccnc2SC)c1`, the z-score was -0.0421.

`Cc1cccc2cc(CN(CC3CCCO3)C(=O)NC3CCCCC3)c(=O)[nH]c12` (stereo not drawn) displayed a z-score of -0.392. As for `O=C1C2(c3ccccc3)CN(CCO)CC1(c1ccccc1)CN(CCO)C2`, the figure is -0.0183; as for `Cn1cc(-c2nnnn2-c2ccc(Cl)cc2)c(C(F)(F)F)n1`, 0.131; as for `CCc1cccc(CC)c1NC(=S)NCc1ccc2c(c1)OCO2`, -0.582. As for `COc1cccc(/C=N/NC(=O)CCn2nnc3ccccc32)c1`, the figure is 2.1; as for `COc1ccc(N2CCN(Cc3nc4ccccc4c(=O)[nH]3)CC2)cc1`, -0.0381. For the compound `c1cncc(-c2nc(-c3ccco3)cs2)c1`, the z-score is -0.0789. As for `CCCCN(CCCC)c1nc2ccccc2nc1C(C#N)C(=O)NCCCOC` (stereo not drawn), the z-score was active: 6.64. Regarding `Cc1noc(C)c1C(=O)NCCCN1CCCC1=O`, the z-score came out at 0.206. Take `COC(=O)C(C#N)C(=C1C(=O)CC(C)(C)CC1=O)c1ccc(O)cc1` (stereo not drawn): the z-score turned out to be 0.478. In turn, `CCn1c2ccccc2c2cc(N=C3SC(CC(=O)Nc4ccccc4)C(=O)N3C)ccc21` (stereo not drawn) gave a z-score of -0.116. As for `CN(C)c1cccc(C(=O)Nc2cccc(F)c2)c1`, the figure is -0.274. For `CC(=O)Nc1sc2c(c1CN1CCN(C)CC1)CCCC2`, the z-score was 0.0499.

Turning to `COc1cc(C(=O)N2CCN(c3ncnc4sc(C)c(C)c34)CC2)cc(OC)c1OC`, the z-score was -0.77. Take `CC1CCN(S(=O)(=O)c2ccc3c(c2)oc(=O)n3CC(=O)N2c3ccccc3CC2C)CC1` (stereo not drawn): the z-score was 0.0729.

On to `Cn1nc(-c2ccc(C(=O)O)cc2)c2ccccc2c1=O`, for which the z-score was -0.386.

`CO/N=C(\Cn1ncc(NC2CCCCC2)c(Br)c1=O)c1ccc(Cl)cc1`: the z-score is -0.575. In turn, `COc1cccc(/C=N/NC(N)=S)c1OCc1cccc(Cl)c1` yielded a z-score of 0.111. As for `Cc1c(NC(=O)CCC(=O)N2CCOCC2)c(=O)n(-c2ccccc2)n1C`, the z-score was found to be 0.107. Regarding `O=C(c1nc2n(n1)C(c1ccc(Cl)cc1)C=C(c1ccccc1)N2)N1CCOCC1` (stereo not drawn), the z-score is -0.388. As to `Cc1cc(C)n(CC(O)CN(c2ccccc2)S(=O)(=O)c2ccccc2)n1` (stereo not drawn), the z-score is -0.261. Take `COc1ccc(CCNC(=O)c2cc3ccccn3n2)c(OC)c1OC`: the z-score is -0.0894.

As to `C/C(N)=C(/C#N)C(=O)CSc1nnc(Nc2ccccc2C)s1`, the z-score is -0.126. Turning to `Cc1ccc([N+](=O)[O-])c(OCC(=O)OCC(=O)c2ccccc2)c1`, the z-score was -0.274.

`Cc1nnc(-c2cnn(C)c2N)n1Cc1ccc(Cl)cc1` yielded a z-score of 0.289.

With `Cc1cc(Cl)cc(Br)c1OCCCN1C(=O)NC(C)(C)C1=O`, the z-score is -0.0538. As for `Cc1ccc(Nc2nnc(-c3ccncc3)s2)c(Br)c1`, the figure is 0.13; as for `CCOc1ccc(CCNC(=O)c2ccc(CNS(=O)(=O)c3ccccc3)cc2)cc1OCC`, -0.309. The compound `Cc1ccccc1-c1nc(CN2CCCC(C(=O)NCc3cccnc3)C2)c(C)o1` (stereo not drawn) had a z-score of -0.423. Turning to `O=C1NC(NS(=O)(=O)c2ccccc2)(C(F)(F)F)C(=O)N1c1ccc(F)cc1` (stereo not drawn), the z-score came out at 0.256. As for `Cc1csc(NC(=O)CSc2nnc(-c3cc(C)on3)o2)n1`, the z-score turned out to be 0.301. On to `Cc1csc(SCCn2c(N3CCN(c4ccccc4)CC3)nc3c2c(=O)[nH]c(=O)n3C)n1`, for which the z-score worked out at 1.74. The compound `COc1ccc(NC(=O)C(=O)NCCN2CCN(C(=O)C(c3ccccc3)c3ccccc3)CC2)cc1` yielded a z-score of -0.158. The result for `Cc1ccnc(NC(=O)C2CCN(S(=O)(=O)c3cccc4nonc34)CC2)c1` reads -0.149; that for `Cc1cc(C)n2c(Br)c(CSc3nc4ccccc4o3)nc2n1`, 0.47.

Compound `Cc1occc1-c1nnc(SCC(=O)Nc2nc(-c3ccccc3)cs2)o1` gave a z-score of -0.197. For `O=C(/C=C/c1ccco1)NC(=S)Nc1ccc(O)c(-c2nc3ccccc3s2)c1`, the z-score was -0.032. The compound `COc1ccc(C2=CSC3=C(C(=O)c4cccc(S(=O)(=O)N(C)C)c4)CCN23)cc1` came in with a z-score of -0.29. Regarding `COc1ccc(N2C(=O)C3C(C2=O)C2C=CC3C23CC3)c(OC)c1` (stereo not drawn), the z-score was determined as 1.27. `C/C=C/CSc1nc2c(c(=O)[nH]c(=O)n2C)n1C(C)C`: the z-score is 0.377. Compound `COc1cccc(N(C(=O)c2cnccn2)C(C(=O)NC2CCCCC2)c2ccc(Cl)cc2)c1` (stereo not drawn) yielded a z-score of -0.149. Turning to `Cc1cccn2cc(CCNC(=O)c3ccco3)nc12`, the z-score was -0.115. Compound `O=C(c1ccccc1)c1c2c(cc3sc4ccccc4[n+]13)-c1cccc3cccc-2c13` gave a z-score of 0.54.

`Cc1nc(-n2ncc(C#N)c2N)c2c3c(sc2n1)CCC3` had a z-score of 0.0974. The result for `Cc1ccc(-n2c(C)nc3c(cnn3-c3ccc(C)c(C)c3)c2=O)cc1C` reads -0.308; that for `Cc1cc(C(F)F)n2nc(C(=O)NCc3ccccc3F)nc2n1`, -0.208.

Regarding `COc1ccc2c(c1)C(C)=CC(C)(C)N2C(=O)C(C)N1C(=O)c2ccccc2C1=O` (stereo not drawn), the z-score turned out to be 0.167.

With `CCOC(=O)c1c(C)[nH]c(C(=O)/C(C#N)=C/c2ccc(OC(F)F)c(OC)c2)c1C`, the z-score was -0.315. Take `CCOc1ccc(NC2C=CS(=O)(=O)C2)cc1` (stereo not drawn): the z-score was determined as 0.106. For `Cc1ccc(OCC(=O)Nc2ccccc2N2CCOCC2)c(C)c1`, the z-score came out at 0.00977. The compound `CCOc1ccc(NC(=O)C(C)Sc2nnc(C)n2C)cc1` (stereo not drawn) gave a z-score of -0.178. As for `O=C(CC1(O)C(=O)Nc2ccccc21)c1cccc(Br)c1` (stereo not drawn), the figure is -0.094; as for `CC(C)(C)C(=O)/C=C/Nc1ccccc1O`, -0.162; as for `COc1ccc(NC(=O)C2CCN(S(=O)(=O)c3c(C)noc3C)CC2)cc1Cl`, -0.286. The compound `Cc1ccc(C2=C/C(=C/c3cccs3)C(=O)O2)cc1` had a z-score of -0.029. Consider `CC1CCC(N2CCN(c3ncccn3)CC2)C1` (stereo not drawn), for which the z-score is -0.131. The result for `Cc1c(CN2CCCCC2)c(O)n(CCCO)c(=O)c1C#N` reads 0.0291; that for `O=C(NC(C(=O)c1ccccc1)N1CCCCCC1)c1ccco1` (stereo not drawn), -0.207. For `Cc1ccc(NC(=O)c2cnn(-c3ccccc3)c2NC(=O)c2ccco2)cc1`, the z-score is -0.217.
